Reference: the supplement of paper PMC3334620
In all, about 33,000 sequences were measured (“E-score (-0.5 to 0.5)”: median about -0.035, highest 2% from about 0.35 on). The list shows a part of the results.

biological target: T1, Pdr3 (UniProt P33200); experiment: PBM E-score (8-mer binding enrichment) (E-score (-0.5 to 0.5)); higher = stronger / more preferred TF binding; most listed sequences are background and not binding sites; details: protein concentration: 200 nM; construct: GST-full length
T1 sequence: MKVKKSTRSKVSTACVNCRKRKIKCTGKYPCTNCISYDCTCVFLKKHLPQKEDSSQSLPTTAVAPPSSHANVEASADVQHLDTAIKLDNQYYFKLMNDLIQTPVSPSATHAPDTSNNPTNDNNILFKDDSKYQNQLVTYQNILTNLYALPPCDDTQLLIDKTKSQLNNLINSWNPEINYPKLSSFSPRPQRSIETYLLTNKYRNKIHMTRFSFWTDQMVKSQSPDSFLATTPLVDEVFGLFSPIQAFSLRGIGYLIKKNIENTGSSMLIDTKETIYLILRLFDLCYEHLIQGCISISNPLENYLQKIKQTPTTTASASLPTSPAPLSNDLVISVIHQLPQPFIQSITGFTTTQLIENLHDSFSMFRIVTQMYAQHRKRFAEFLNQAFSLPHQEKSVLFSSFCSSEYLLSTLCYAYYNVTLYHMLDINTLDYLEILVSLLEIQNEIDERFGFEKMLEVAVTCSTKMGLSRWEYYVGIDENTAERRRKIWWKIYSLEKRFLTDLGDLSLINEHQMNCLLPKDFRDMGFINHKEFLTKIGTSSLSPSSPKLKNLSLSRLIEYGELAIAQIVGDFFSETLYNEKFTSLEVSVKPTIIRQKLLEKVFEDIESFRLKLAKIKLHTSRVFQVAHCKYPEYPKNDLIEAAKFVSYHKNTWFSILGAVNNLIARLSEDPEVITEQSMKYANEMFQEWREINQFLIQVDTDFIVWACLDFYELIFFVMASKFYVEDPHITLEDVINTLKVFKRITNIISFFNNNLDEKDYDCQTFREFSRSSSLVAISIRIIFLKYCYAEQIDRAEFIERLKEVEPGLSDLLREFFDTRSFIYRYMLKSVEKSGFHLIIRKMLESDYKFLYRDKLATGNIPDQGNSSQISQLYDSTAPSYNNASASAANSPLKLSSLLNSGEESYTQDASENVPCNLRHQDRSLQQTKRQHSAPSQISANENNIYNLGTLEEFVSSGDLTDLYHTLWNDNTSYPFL
Outline: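 Yeast transcription factors, full-length or as DNA-binding domains, were expressed with a GST tag using PURExpress in vitro transcription/translation. At about 100-200 nM they were applied to universal all-10-mer Agilent arrays, double-stranded by primer extension on fresh or once-stripped slides. Fluorescent anti-GST detected bound protein, and masliner normalised the scans. E-scores for ungapped eight-base words, pooled with reverse complements, came from the Universal PBM Analysis Suite.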

Row | Sequence | PBM E-score
1 | ATAAGTCG | 0.123
2 | AACCCTCC | -0.0905
3 | GGGTAGGA | 0.123
4 | CTAAAGGA | -0.0754
5 | CCGAACGG | 0.32
6 | CTCCACAA | -0.22
7 | GCCCAAAA | -0.0889
8 | ATTTTTTG | 0.0165
9 | CGTGCGCC | 0.239
10 | ATGTGCGA | -0.0762
11 | GCGGATAC | 0.311
12 | ATTGGTCC | 0.169
13 | CACCAAGA | -0.107
14 | ATGGCGGA | 0.279
15 | AACGTTGG | -0.0419
16 | AGGAGACT | -0.263
17 | CACGCTCA | 0.0533
18 | ACGTCGTG | -0.0757
19 | CCCCACAG | -0.347
20 | GATCTACC | 0.00285
21 | GTTCCTCA | 0.0277
22 | AGCAATAG | -0.0578
23 | AACATACA | -0.177
24 | CGGCTTAA | 0.314
25 | ACCGTGCG | 0.0528

Row | Sequence | PBM E-score
26 | GTAGGCAA | -0.291
27 | AGAGGCTA | -0.169
28 | CAGTCATG | -0.0684
29 | CAATACTA | -0.161
30 | CTTAGAAG | -0.272
31 | AACGACTT | -0.331
32 | GACTCCTA | -0.211
33 | AGCGTATG | -0.118
34 | AGCATCGC | -0.00236
35 | AAACGTTG | -0.142
36 | CCCGGGTA | 0.438
37 | CATTCTAC | -0.206
38 | CGTAGCTA | -0.168
39 | AATAATCC | 0.086
40 | GTACCTAA | -0.291
41 | ACCCGCCC | 0.348
42 | AACTCTGG | -0.0918
43 | CTGGCTAC | -0.186
44 | CGGGCTGC | 0.211
45 | GATTTATA | 0.0785
46 | AACCCTGC | -0.0701
47 | CACATATG | -0.331
48 | ACAATCCT | -0.131
49 | ATGTGTCA | -0.177
50 | AGTTTCCA | 0.0305

Row | Sequence | PBM E-score
51 | ATTGCTGG | -0.163
52 | ACGTCTTG | -0.178
53 | TATCCACA | -0.09
54 | CTATGGAC | -0.134
55 | CTGCGAAA | -0.0331
56 | CGATCACC | 0.0507
57 | ACGACTCT | -0.201
58 | AGCTGACT | -0.00609
59 | CTGTAGTA | -0.0687
60 | AGCACTAG | -0.211
61 | GTTCATCA | -0.0341
62 | GCAGATAC | 0.0171
63 | CTGATATA | -0.168
64 | CCGGCGTA | 0.236
65 | GATTTTTA | 0.00282
66 | CCTTCGAG | -0.131
67 | AACGTGCA | -0.101
68 | GATAGCCC | -0.0993
69 | CATCTGGA | 0.0298
70 | CTGTATCA | -0.224
71 | GAAGAATC | 0.194
72 | CACTCTGA | -0.122
73 | CAGTTCGA | -0.0829
74 | ATTGTTGG | 0.103
75 | AGTGGGAA | 0.00546

Row | Sequence | PBM E-score
76 | CGATACCA | 0.0304
77 | ACATTCTA | -0.24
78 | AACCGTGC | 0.0658
79 | CCAATAGA | -0.0305
80 | CTGACTAA | 0.0466
81 | CGGTAGCC | 0.132
82 | GGGTATAA | 0.00025
83 | GACTACCA | -0.201
84 | CCGGGTAA | 0.397
85 | GAGGCTGC | 0.0172
86 | CGAGCCCC | -0.0391
87 | GTAGCTAC | -0.115
88 | CCGCCTAG | 0.0446
89 | AATGGTCC | 0.183
90 | AGCAGTAG | -0.236
91 | AAGCGCAA | 0.0102
92 | AGACCAGA | -0.201
93 | GATCCGCC | 0.331
94 | ACTGTGGA | -0.229
95 | AGGGAGGA | -0.291
96 | ATTCCCTG | 0.017
97 | CGCCTGAC | 0.0819
98 | GTCGAGCA | -0.326
99 | AGACGACT | -0.0111
100 | GGATATCC | 0.262

Row | Sequence | PBM E-score
101 | GAATATCC | 0.17
102 | ATTGCTAA | -0.133
103 | CACATTAG | -0.159
104 | CGGAACTA | 0.473
105 | CGGTGGAA | 0.086
106 | GAAGATAA | 0.164
107 | CAAGTCAG | -0.117
108 | AACTTAAG | -0.229
109 | AGGGAAAG | -0.106
110 | ACGCAACT | -0.0132
111 | CTTGGATC | 0.00749
112 | ATCTGCGA | -0.171
113 | CCCGATCG | 0.234
114 | ATGGAGTC | 0.174
115 | GAACTGCC | 0.146
116 | GACCGATA | 0.0564
117 | CAAACGCA | -0.165
118 | CATTGGAG | -0.0295
119 | CGGTGCTA | 0.0307
120 | CATCTAAC | -0.0779
121 | AGCCCGGA | 0.355
122 | CATATTGA | -0.18
123 | ATACATTC | -0.117
124 | CTAGGCAA | -0.138
125 | GACTTGCC | -0.124

Row | Sequence | PBM E-score
126 | AATGACAG | -0.233
127 | ACAAGAGA | -0.0417
128 | CTCTGTCC | -0.0549
129 | CATCACGA | -0.274
130 | AATGACTC | -0.227
131 | GTAACTAA | 0.0981
132 | CGGGTGCA | 0.261
133 | CAGTGGGC | -0.0874
134 | CAATGGCC | -0.0441
135 | CCCCTGCA | -0.0201
136 | GACATCAC | -0.031
137 | ACACTAAA | 0.022
138 | AGCGCGTC | -0.0362
139 | GCAGCACC | -0.149
140 | CGTTAGAA | -0.138
141 | ACTTCCTA | -0.0935
142 | ACGGACCC | 0.344
143 | AGAGACAC | -0.165
144 | ACGTAAAT | -0.105
145 | GCGAACCC | 0.0677
146 | AGAAAACT | -0.18
147 | CCATGTCC | 0.135
148 | CTGGGTCC | -0.128
149 | AATGTCGT | -0.138
150 | GGCCGCAA | 0.0933

Row | Sequence | PBM E-score
151 | CGAACGTA | -0.194
152 | ACACTACC | -0.166
153 | TACCTCCA | -0.202
154 | AGTGCTAA | 0.0692
155 | GTCAGCCA | -0.167
156 | AGGGATTG | -0.0865
157 | GCGCGGTA | 0.28
158 | ACCCTATC | 0.036
159 | TCTGAGCA | -0.212
160 | GAGACGTA | -0.148
161 | ATTTGGAG | -0.112
162 | ACATTAAA | -0.084
163 | CCTGTATA | -0.00321
164 | CGTACTCC | 0.0233
165 | CCTATTTC | -0.0468
166 | ACCGATCG | 0.123
167 | AGTCATAT | -0.0519
168 | CGACAGGA | 0.133
169 | AAGCTTAG | -0.116
170 | TGATTTAA | -0.0145
171 | AAAGTCTC | -0.186
172 | GCAATTGC | -0.0244
